In all, about 39,000 compounds went through this assay and about 220 (0.56%) showed activity. The list shows a part of the results.
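Further: static incubation at 37 °C against the wild-type strain, values averaged over two biological replicates.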

The experiment relates to Escherichia coli K-12 BW25113. Briefly: relative growth (OD600 normalised to plate interquartile mean) (fraction); higher = less growth inhibition, active = 0.2 or less. The following applies: 50 µM; LB; incubation time: overnight (16-24 h).
As to `COc1ccc(S(=O)(=O)N(C)C[C@H]2Oc3c(NS(=O)(=O)c4ccccc4)cccc3C(=O)N([C@H](C)CO)C[C@@H]2C)cc1`, the relative growth was inactive: 1.02. The result for `COc1ccc(S(=O)(=O)Nc2ccc3c(c2)CC(=O)N([C@@H](C)CO)C[C@H](C)[C@H](CN(C)Cc2ccc(Oc4ccccc4)cc2)O3)cc1` reads inactive: 0.989; that for `CC(C)NC(=O)Nc1ccc2c(c1)C(=O)N([C@@H](C)CO)C[C@@H](C)[C@H](CN(C)CC1CCCCC1)OCCCC[C@H](C)O2`, inactive: 0.989; that for `COc1ccc(-c2cn(CCNC(=O)[C@H](Cc3ccccc3)NS(=O)(=O)c3ccc(C)cc3)nn2)cc1OC`, inactive: 0.987. As for `C[C@@H]1CN([C@@H](C)CO)C(=O)c2cc(NC(=O)Nc3ccccc3)ccc2O[C@@H](C)CCCCO[C@@H]1CN(C)S(=O)(=O)c1ccccc1`, the relative growth is inactive: 0.991.

With `C#C[C@@]1(O)[C@@H](CO)O[C@@H](n2ccc(N)nc2=O)[C@@H]1O`, the relative growth is inactive: 0.989. Under `C[C@H](CO)N1C[C@H](C)[C@H](CN(C)S(=O)(=O)c2cccs2)OCCCC[C@H](C)Oc2ccc(NS(C)(=O)=O)cc2C1=O` stands inactive: 1.01.

Regarding `C[C@@H]1CN([C@@H](C)CO)S(=O)(=O)c2ccc(-c3ccc(F)cc3)cc2O[C@@H]1CN(C)S(C)(=O)=O`, the relative growth is inactive: 1. Turning to `C[C@@H]1CN([C@H](C)CO)S(=O)(=O)c2ccc(C#CCN(C)C)cc2O[C@H]1CN(C)Cc1ccccn1`, the relative growth was inactive: 0.999. The result for `C[C@@H]1CN([C@H](C)CO)C(=O)c2cc(NS(=O)(=O)c3ccc(F)cc3)ccc2O[C@@H](C)CCCCO[C@H]1CN(C)Cc1ccc(Cl)c(Cl)c1` reads inactive: 0.97; that for `C[C@@H]1CN([C@@H](C)CO)C(=O)Cc2cc(NC(=O)C3CC3)ccc2O[C@H]1CN(C)S(=O)(=O)c1cccs1`, inactive: 0.999; that for `Cc1ccc(S(=O)(=O)N[C@@H](Cc2ccccc2)C(=O)NCCCn2cc(-c3ccc(C(=O)NO)s3)nn2)cc1`, inactive: 0.978.

Consider `C[C@H](CO)N1C[C@H](C)[C@H](CN(C)C(=O)NC2CCCCC2)OCCCC[C@H](C)Oc2ccc(NC(=O)c3ccccc3)cc2C1=O`, for which the relative growth is inactive: 0.994. The result for `NCC[C@@H]1CC[C@@H](NC(=O)Cc2ccncc2)[C@H](CO)O1` reads inactive: 0.966; that for `Nc1nc(O[C@@H](c2ccc(-c3cccc(F)c3)cc2)C(F)(F)F)cc(-c2ccc(C[C@H](N)C(=O)O)cc2)n1`, inactive: 0.967.

In the case of `O=C(C[C@H]1C=C[C@@H](NC(=O)c2cnccn2)[C@H](CO)O1)NCc1ccccc1F`, the relative growth is inactive: 0.998.

As to `C=CCC[C@H](Cc1ccc(F)cc1)C(=O)OC[C@H](Cc1c[nH]c2ccccc12)NC(=O)[C@H](CC=C)CC(=O)N[C@@H](CO)Cc1ccccc1`, the relative growth was inactive: 1.07. The result for `Cc1ccc(S(=O)(=O)N2C[C@H](O)COC[C@H]3O[C@H](CC(=O)N4CCc5ccccc5C4)CC[C@@H]32)cc1` reads inactive: 0.967; that for `C[C@@H]1CN([C@H](C)CO)C(=O)c2cc(NC(=O)CCC(F)(F)F)ccc2O[C@@H](C)CCCCO[C@@H]1CN(C)C(=O)c1ccccc1`, inactive: 1; that for `COc1ccc(S(=O)(=O)N(C)C[C@H]2OCCCC[C@@H](C)Oc3ccc(NC(=O)CCC(F)(F)F)cc3C(=O)N([C@H](C)CO)C[C@H]2C)cc1`, inactive: 1.01. The result for `COc1cccc(NC(=O)N2C[C@H](O)COC[C@H]3O[C@H](CC(=O)NCc4ccccc4F)CC[C@@H]32)c1` reads inactive: 0.986; that for `CO[C@H]1CN(C)C(=O)c2ccc(NS(=O)(=O)c3cn(C)cn3)cc2OC[C@H](C)N(CC2CC2)C[C@H]1C`, inactive: 0.99; that for `COCC#Cc1ccc2c(c1)O[C@@H](CN(C)C(=O)c1ccccc1F)[C@@H](C)CN([C@@H](C)CO)S2(=O)=O`, inactive: 1.03. The result for `C[C@@H]1CN([C@@H](C)CO)C(=O)Cc2cc(NS(C)(=O)=O)ccc2O[C@@H]1CN(C)Cc1ccc(C(=O)O)cc1` reads inactive: 0.921. In the case of `Cc1ccc(-c2csc(-c3ccc(CN)cc3)n2)cc1`, the relative growth was inactive: 0.97.

On to `CCCC(=O)Nc1ccc2c(c1)OC[C@@H](C)N(C(=O)Cc1cccnc1)C[C@@H](C)[C@H](OC)CN(C)C2=O`, for which the relative growth is inactive: 1.02.

Take `C[C@H]1CN([C@@H](C)CO)C(=O)c2ccccc2-c2ccccc2CO[C@@H]1CN(C)C(=O)Nc1cccc(Cl)c1Cl`: the relative growth was inactive: 1. Under `CCCN(C)C[C@H]1OCCCC[C@@H](C)Oc2ccc(NC(=O)Nc3c(C)noc3C)cc2C(=O)N([C@H](C)CO)C[C@@H]1C` stands inactive: 1.01; under `COc1ccc(-c2cc(=O)c3c(OC)cc(OC)cc3o2)cc1`, inactive: 1.08; under `C[C@@H]1CN([C@H](C)CO)C(=O)c2cccc(NS(=O)(=O)c3ccc(Cl)cc3)c2O[C@@H]1CN(C)C(=O)Nc1ccc(C(F)(F)F)cc1`, inactive: 0.99. Turning to `CCN1[C@H](C(=O)NCCc2cn(C)cn2)[C@@H](CO)[C@@H]2Cn3c(ccc(-c4cccnc4)c3=O)[C@@H]21`, the relative growth was inactive: 1.02. Turning to `C[C@@H]1CCCCO[C@H](CN(C)C(=O)Nc2cccc3ccccc23)[C@@H](C)CN([C@H](C)CO)C(=O)c2cc(NS(=O)(=O)c3ccc(Cl)cc3)ccc2O1`, the relative growth is inactive: 1.03. For `COc1ccc(NC(=O)Nc2ccc3c(c2)C(=O)N([C@@H](C)CO)C[C@@H](C)[C@@H](CN(C)C(=O)Cc2ccccc2)OCCCC[C@H](C)O3)cc1`, the relative growth is inactive: 0.991. Under `Cc1ccc(S(=O)(=O)N2C[C@H](O)COC[C@H]3O[C@H](CC(=O)N[C@@H]4CCN(Cc5ccccc5)C4)CC[C@@H]32)cc1` stands inactive: 0.998; under `C[C@H](CO)N1C[C@H](C)[C@@H](CN(C)C(=O)Nc2ccnc(N3CCOCC3)c2)OCc2cn(nn2)CCCC1=O`, inactive: 0.972; under `C[C@@H]1CCCCO[C@H](CN(C)C)[C@@H](C)CN([C@H](C)CO)C(=O)c2cc(NC(=O)Nc3ccc(C(F)(F)F)cc3)ccc2O1`, inactive: 0.974. Under `C[C@H](CO)N1C[C@H](C)[C@@H](CN(C)C(=O)Cc2ccccn2)Oc2ncc(-c3cccc(C(=O)N(C)C)c3)cc2C1=O` stands inactive: 0.971.
